In ChEMBL document CHEMBL1201862, “PubChem BioAssay data set” (2004):

test system: NCI-H322M; experiment: NCI anticancer screen, dose series, 48 h

Row | Compound | GI50
1 | O=[N+]([O-])c1ccc(NN=C2c3ccccc3Cc3ccccc32)c([N+](=O)[O-])c1 | inactive: 4.23 µM
2 | N#C/C(=C\c1ccccc1O)C(N)=O | inactive: 49.1 µM
3 | CC(=O)O[C@H]1CCC2[C@@H]3CCC4Nc5[nH]ncc5C[C@]4(C)C3CC[C@@]21C (stereo partly drawn) | inactive: > 100 µM
4 | Nc1nc2c(ncn2Cc2ccccc2CO)c(=O)[nH]1 | inactive: > 100 µM
5 | c1cc2n(n1)CCN2 | inactive: 4910 µM
6 | COc1cc([C@H]2CC(=O)C[C@H](c3cc(OC)c(OC)c(OC)c3)C23C(=O)c2ccccc2C3=O)cc(OC)c1OC | inactive: > 100 µM
7 | Cc1c(C)c(S(=O)(=O)N(CCCN)OCCCN)c(C)c2c1OC(C)(C)CC2 | inactive: 17 µM
8 | CCOC(=O)/C(C#N)=C(/NNc1ccccc1)c1ccncc1C(=O)O | inactive: > 100 µM
9 | Cc1cc2c3c(c1)S(=O)(=O)c1cc(Cl)ccc1N3CCC2 | inactive: 70 µM
10 | Cc1cn(C(Cc2ccccc2)OCCO)c(=O)[nH]c1=O (stereo not drawn) | inactive: > 100 µM
11 | CCCCNC(=O)CCN(C(=O)O)S(=O)(=O)c1ccc(NC(=O)c2ccccc2)cc1 | inactive: > 100 µM
12 | NNC(=S)N/N=C/C(=C/Nc1ccccc1)[N+](=O)[O-] | inactive: > 100 µM
13 | COc1cc2c(c(OC)c1)C(=O)O[C@H](C)CCCC/C=C/C2 | inactive: 32.4 µM
14 | O=C(NCCOC(=O)CCCCCCCCC(=O)OCCNC(=O)NC(=O)c1cn(Cc2ccccc2)c(=O)[nH]c1=O)NC(=O)c1cn(Cc2ccccc2)c(=O)[nH]c1=O | inactive: > 100 µM
15 | Cn1cc(C(=O)C2CCCCC2)ccc1=O | inactive: > 100 µM
16 | Clc1ccc(CCNC2(c3cc4ccccc4s3)CCCCC2)cc1Cl | inactive: 42.7 µM
17 | Cc1ccccc1NC(=O)Cc1csc2[n+]1C(=O)/C(=C/c1ccc([N+](=O)[O-])cc1)S2 | inactive: 43.4 µM
18 | O=C(c1ccccc1)N1C(=S)NC(=N/c2ccccc2)/C1=N\c1ccccc1 | inactive: > 100 µM
19 | COc1ccc2c3c([nH]c2c1[N+](=O)[O-])C(C)N(C(=O)/C=C/c1ccccc1)CC3 (stereo not drawn) | inactive: 4.25 µM
20 | CC(O)C1(O)C(O)CC(OC2c3cc4c(c(O)c3[C@@H]3C[C@@]2(C)OC32C=c3cc[nH]c3=N2)C(=O)c2cccc(O)c2C4=O)OC1C (stereo partly drawn) | inactive: 2.05 µM
21 | O=C(c1cccs1)N(Cc1cccnc1)C(=S)N(Cc1cccnc1)C(=O)c1cccs1 | inactive: 90.6 µM
22 | CN(C)CCONC(=O)C12CC3CC(CC(C3)C1)C2 | inactive: > 100 µM

Row | Compound | GI50
23 | O=[N+]([O-])c1cccc2nc3ccccc3c(NCCCCNc3c4ccccc4nc4cccc([N+](=O)[O-])c34)c12 | active: 0.113 µM
24 | O=C1NC(=O)C(c2c[nH]c3ccccc23)=C1c1cn(C(c2ccccc2)(c2ccccc2)c2ccccc2)cn1 | inactive: 12.1 µM
25 | CN(/N=C/c1ccccc1O)c1ccc2ccccc2n1 | inactive: 20.7 µM
26 | OCCOCn1nncc1Cn1ncc2c(SCc3ccccc3)ncnc21 | inactive: > 100 µM
27 | CCOc1cc(C2SCC(=O)N2c2nc3cc4sc(N5C(=O)CSC5c5ccc(O)c(OCC)c5)nc4cc3s2)ccc1O (stereo not drawn) | inactive: 69 µM
28 | O=C(O)CCSCc1ccc(I)cc1 | inactive: > 100 µM
29 | CC(=O)NC(CCCNCc1ccccc1)C(=O)NCc1ccccc1 (stereo not drawn) | inactive: > 100 µM
30 | CC1(C)c2ccccc2C(=O)C12CCC(=O)CC2 | inactive: > 100 µM
31 | CC(C)=CCN=C(N)N | inactive: > 100 µM
32 | O=C(/C=C/c1ccc(OCc2cccc(Cl)c2)cc1)NO | inactive: 14.3 µM
33 | CC(=O)OCC1(C)C(OC(C)=O)CCC2(C)C(CC(OC(C)=O)C3=CCOC3=O)C(O)(CO)CCC12 (stereo not drawn) | inactive: > 100 µM
34 | CCCn1cc2c3c(cccc31)C1C=C(C)CN(C)C1C2 (stereo not drawn) | inactive: 24.5 µM
35 | N=C(N)n1nc2c(c1O)CCC2 | inactive: > 100 µM
36 | Cc1nc2c(Cl)cc(Cl)cc2c(Cl)c1CCCl | inactive: > 100 µM
37 | O=[N+]([O-])c1ccc2oc(=N/c3ccccc3)/c(=N\c3ccccc3)[nH]c2c1 | inactive: > 100 µM
38 | CN(C)Cc1cc(C(C)(C)C)cc(C2CCCCC2)c1O | inactive: 14.7 µM
39 | Cc1ccc(C2=Nc3c(N)nc(N)nc3NC(c3ccccc3)C2)cc1 (stereo not drawn) | inactive: 16.4 µM
40 | COc1cc(OCc2ccc3oc(=O)c(-c4ccccc4)nc3c2)cc(OC)c1OC | inactive: > 100 µM
41 | Nc1ccccc1SC(/C=C/NNC1=NN=C(c2ccccc2)C(c2ccccc2)N1)c1ccccc1 (stereo not drawn) | inactive: 16.2 µM
42 | O=C1/C(=C/c2ccc(Cl)cc2)NC(=S)N1CN1CCOCC1 | inactive: > 100 µM
43 | C=C(C)[C@@H]1CC[C@]2(C)CC[C@]3(C)[C@H](CC[C@@H]4[C@@]5(C)CC[C@H](O)C(C)(C)[C@@H]5CC[C@]43C)[C@@H]12 [LUPEOL] | inactive: > 100 µM
44 | C(=N\N=C1NCCN1)/c1ccc2ccccc2c1 | inactive: 14.6 µM

Row | Compound | GI50
45 | COC(=O)C1=C(C(=O)OC)SC(=C2S[C@@H]3[C@@H]4C[C@H]([C@@H]3S2)[C@H]2C(=O)OC(=O)[C@@H]42)S1 | inactive: > 100 µM
46 | C=C=C(CC1CCCCC1=O)S(=O)(=O)c1ccccc1 (stereo not drawn) | inactive: > 5.46 µM
47 | COC(=O)N1C=Cc2c(c(C)c3c([nH]c4ccccc43)c2C)C1C (stereo not drawn) | inactive: 16.9 µM
48 | O=C1N/C(=N/N=C/c2c[nH]c3ccccc23)N/C1=C\c1c[nH]c2ccccc12 | inactive: 32.1 µM
49 | NC1=NC(c2ccc(Cl)cc2)N(c2ccc(S(N)(=O)=O)cc2)C(N)=N1 (stereo not drawn) | inactive: > 100 µM
50 | Cc1cc(O)c(C=O)c(C)c1CCC1(C)C=Cc2cc(O)ccc2O1 (stereo not drawn) | inactive: 27.1 µM
51 | NC(=O)[C@H](Cc1ccc(O)cc1)NC1=C(Cl)C(=O)c2c(O)ccc(O)c2C1=O | inactive: 8.53 µM
52 | O=C(O)[C@H]1CCCN1CP(=O)(O)CN1CCC[C@@H]1C(=O)O | inactive: > 100 µM
53 | CC(=O)Oc1cc(OC(C)=O)c2cc3c(cc2c1OC(C)=O)C(=O)C1(CCCC1)C3=O | inactive: 17.1 µM
54 | O=c1oc2c3ccc4ccccc4c3n(CCN3CCOCC3)c2c2ccccc12 | inactive: 7.74 µM
55 | CCCCCCCCCc1c(O)c(O)c(CCCCCCCCC)c(CCCCCCCCC)c1CCCCCCCCC | inactive: > 100 µM
56 | O=C(CO)CC(=O)C(=O)Nc1cccc(C(F)(F)F)c1 | inactive: > 100 µM
57 | Cc1sc2nc3n(c(=O)c2c1C)N=CN(c1ccc(F)cc1)C3 | inactive: > 100 µM
58 | Cc1ccnc(NC(=S)Nc2ccccc2Cl)c1 | inactive: > 100 µM
59 | [N-]=[N+]=C1C(=O)C2CC3CC(C2)CC1C3 | inactive: > 100 µM
60 | Cc1cnc2sn(-c3ccc(Oc4ccccc4)cc3)c(=O)c2c1 | inactive: 34.3 µM
61 | COC1=C(C)C(=O)c2c(c(COC(N)=O)c3n2CC2C3N2C)C1=O (stereo not drawn) | active: 0.104 µM
62 | CCOC(=O)C(NC(=O)CC)(Nc1ccc(S(=O)(=O)Nc2ccc(OC)nn2)cc1)C(F)(F)F (stereo not drawn) | inactive: > 100 µM
63 | Nc1ccccc1/N=N/c1c(S(=O)(=O)O)cc2cc(S(=O)(=O)O)cc(O)c2c1O | inactive: > 100 µM
64 | Cc1ccc2occ/c(=N\Nc3ccccc3)c2c1 | inactive: 52.5 µM
65 | COC(=O)C1=C(C(=O)OC)SC2(S1)C(C(=O)OC)=C(C(=O)OC)Sc1c2ss/c1=N/C(C)(C)C | inactive: 5.01 µM
66 | CCOC(=O)CNC(=O)OCc1ccccc1 | inactive: > 100 µM

Row | Compound | GI50
67 | COC(=O)C1=C(C(=O)OC)C(N(C)C)C(C(=O)OC)=C(C(=O)OC)S1 | inactive: > 100 µM
68 | COC(=O)CC1(O)C=CC(=O)C=C1 [JACARANONE] | inactive: 15.5 µM
69 | COc1ccc(Cc2nc3cc([N+](=O)[O-])ccc3n2C[C@@H]2CCCN3CCCCC23)cc1 (stereo partly drawn) | inactive: 25.3 µM
70 | COc1nc2ccc(CNc3ccc(C(=O)NC(CCC(=O)O)C(=O)O)cc3)cc2nc1OC (stereo not drawn) | inactive: > 100 µM
71 | O=Cc1c2ccccc2n2ccc3c4ccccc4[nH]c3c12 | inactive: > 10 µM
72 | NCCNc1nc(N2CCCC2)c2nc(Cl)c(NCc3ccccc3)nc2n1 | inactive: 2.48 µM
73 | COc1ccc(/C(C)=N/OC(=O)c2c(-c3ccccc3Cl)noc2C)cc1CN1CCOCC1 | inactive: 31.2 µM
74 | Oc1cc2cc(-c3ccccc3)[nH]c2c2ccccc12 | inactive: 70.6 µM
75 | [N-]=[N+]=C1C(=O)c2ccccc2-c2ccccc21 | inactive: 31.1 µM
76 | COC(=O)[C@]1(C)CCC[C@]2(C)C3CC4OOC3(C=C4C(C)(C)O)CCC21 (stereo partly drawn) | inactive: > 100 µM
77 | CCOC(=O)CNC(=O)C(C)NC(=O)C(NC(=O)OCc1ccccc1)C(C)C (stereo not drawn) (Cbz-Val-Ala-Gly-OEt; configuration not given here) | inactive: > 100 µM
78 | Sc1nn2c(COc3cccc(OCc4nnc5sc(S)nn45)c3)nnc2s1 | inactive: > 100 µM
79 | C=C1C(=O)OC2CC(C)C3C=CC(=O)C3CC12 (stereo not drawn) | inactive: 7.28 µM
80 | C(=C\c1ccccc1)/C=N/c1nc2cc3sc(/N=C/C=C/c4ccccc4)nc3cc2s1 | inactive: > 72.8 µM
81 | COC1CC(OC2C(C)OC(OC3C(C)OC(OC4C(C)OC(O[C@H]5CC[C@@]6(C)C(=CC[C@]7(O)[C@@H]6C[C@@H](OC(=O)/C=C(\C)C(C)C)[C@@]6(C)[C@]7(O)CC[C@@]6(O)C(C)=O)C5)CC4OC)CC3OC)CC2OC)OC(C)C1O (stereo partly drawn) | inactive: > 12.5 µM
82 | C[C@@H](NC(=O)CNC(=O)OC(C)(C)C)C(=O)N[C@@H](Cc1ccccc1)C(=O)OCc1ccccc1 (HELM PEPTIDE1{[CC(C)(C)OC(=O)[*:2]].G.[dA].F.[c1ccc(CO[*:1])cc1]}$$$$V2.0) | inactive: > 100 µM
83 | O=C(CCCCCCCCCCc1ccccc1)c1c(O)cccc1O | inactive: 31.2 µM
84 | CC1C=CN(N(C)C)C2=C1C(=O)c1cnccc1C2=O (stereo not drawn) | active: 0.897 µM
85 | O=c1nc(-c2ccccc2)c2c3c(cccn13)CCC2 | inactive: > 100 µM
86 | OC[C@@H]1CC#C/C=C\C#CC[C@@H]1CO | inactive: > 100 µM
87 | C[C@H](C/C=C/C(C)(C)O)[C@H]1CC[C@@]2(C)[C@@H]3CC[C@H]4C(C)(C)[C@@H](O)CC[C@@]45C[C@@]35CC[C@]12C | inactive: 10.3 µM
88 | COc1ccc(-c2nc(-c3cnccn3)n(C3OC(CO)C(O)C3O)n2)cc1 (stereo not drawn) | inactive: > 10 µM

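Where inhibition never reached the appropriate level, the endpoint shown equals the highest concentration tested. Otherwise, values were interpolated linearly from a five-concentration, 48-hour dose response in 96-well plates. Here, GI50 denotes the concentration required for 50% inhibition of growth.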 The source made the active and inactive calls. No stated cut-off is given here; in the data, active = GI50 up to about 1.1 µM and inactive = higher. Peptide text beside a SMILES is read from it. * marks the point of attachment. Cbz = O=C(OCc1ccccc1)*
